Reference: PubChem BioAssay AID1030 (National Center for Advancing Translational Sciences (NCATS), 2008)
Screen size: about 220,000 compounds; about 16,000 (7.3%) were called active. The shares of active, inactive and inconclusive entries below differ from those in the screen. Calls follow the shape of the dose curve; as a rule, active = well fitted inhibition curve with a large enough effect (not every such curve was filed as active); inconclusive = small, poorly fitted or top-dose-only effect, or another doubt; inactive = no such curve, though single readings can be large or run the other way. Potencies of inconclusive entries are doubtful fits and often do not repeat.

Each compound was assayed against Aldehyde dehydrogenase 1A1 (Homo sapiens) (UniProt P00352) (assay: qHTS Assay for Inhibitors of Aldehyde Dehydrogenase 1 (ALDH1A1)). Settings: Purified ALDH1A1, NADH fluorescence, propionaldehyde substrate; series mostly up to 75.3 µM; activity, negative = inhibition: at the top concentration.
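For activity, negative = inhibition in this document: plate controls were no enzyme wells and a reference inhibitor.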
Potency is read from the fitted curve at half-maximal effect; tags tell the direction and shape of the fitted curve.

Chain of UniProt P00352 (P00352 whole entry, looked up): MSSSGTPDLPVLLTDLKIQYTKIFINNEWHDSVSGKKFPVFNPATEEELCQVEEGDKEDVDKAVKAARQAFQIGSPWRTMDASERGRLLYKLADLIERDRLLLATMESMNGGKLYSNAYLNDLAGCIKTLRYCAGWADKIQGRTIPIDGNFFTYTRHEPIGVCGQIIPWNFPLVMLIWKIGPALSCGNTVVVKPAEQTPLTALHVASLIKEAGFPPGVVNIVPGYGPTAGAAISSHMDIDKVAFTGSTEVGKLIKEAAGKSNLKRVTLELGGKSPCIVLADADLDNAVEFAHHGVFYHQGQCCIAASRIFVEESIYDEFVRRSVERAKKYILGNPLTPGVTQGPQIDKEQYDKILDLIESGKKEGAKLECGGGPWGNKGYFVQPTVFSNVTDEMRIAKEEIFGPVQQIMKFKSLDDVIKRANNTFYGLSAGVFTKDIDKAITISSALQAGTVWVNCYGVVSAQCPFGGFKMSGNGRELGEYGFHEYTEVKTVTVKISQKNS

Potency, inconclusive:
COc1ccc(OC)c(NC(=O)CCCN2C(=O)C3C4C=CC(C4)C3C2=O)c1 (centres undefined) 25.1 µM [inhibitor, partial curve]
COc1cc(C(=O)Nc2ccc(S(=O)(=O)Nc3cc(C)nc(C)n3)cc2)cc(OC)c1OC 22.4 µM [inhibitor, partial curve]
CCCCn1c(/N=C/c2ccc3c(c2)OCO3)nc2ccccc21 39.8 µM [inhibitor, single point]
Cc1nc2cncnc2n(C2CC2)c1=O 39.8 µM [inhibitor, single point]
CNc1ccc(Br)cc(C(=O)/C=C/c2cc(OC)ccc2OC)c1=O 15.8 µM [inhibitor, partial curve]
CCCc1nnc2n1N=C(c1ccc(-c3cc(Cl)ccc3Cl)o1)CS2 39.8 µM [inhibitor, single point]
O=C(CCC(=O)N1CCOCC1)Nc1nnc(C2CCCCC2)s1 39.8 µM [inhibitor, single point]
CCN1C=C(Cc2ccc(OC)cc2)C2=C(C1)C(c1ccc(OC)cc1)C(C#N)=C(N)O2 (centres undefined) 28.2 µM [inhibitor, single point]
O=C(NNC1=C(C(=O)C(F)(F)F)CCC1)c1cccnc1 39.8 µM [inhibitor, single point]
CCc1c(C)nc2cc(-c3cccs3)[nH]n2c1=O 28.2 µM [inhibitor, partial curve]
Cc1cc(C)cc(N(CC(=O)NC2CCCC2)C(=O)C2(C)CC(=O)N=C3C=CC=CN32)c1 (centres undefined) 25.1 µM [inhibitor, partial curve]
COc1cc(/C=C/C(=O)OCC(=O)NCCc2ccccc2)cc(OC)c1OC 39.8 µM [inhibitor, single point]
O=C(O)C1C2C=CC(O2)C1C(=O)NCCc1cccc(Cl)c1 (centres undefined) 35.5 µM [inhibitor, single point]
Cc1ccc(-c2nnc(-c3ccc(Br)cc3)o2)o1 17.8 µM [inhibitor, partial curve]
Cc1ccc(-c2csc(N)n2)s1 44.7 µM [inhibitor, single point]
CCOc1nc(-c2ccccc2)ccc1-c1noc(-c2ccncc2)n1 4.47 µM [inhibitor, single point]
O=C(c1ccc(CN2CCc3ccccc3C2)cc1)N1CCN(c2ccccc2)CC1 39.8 µM [inhibitor, single point]
COc1ccccc1CN1CC[C@@]2(CCCN(C(=O)c3cccn3C)C2)C1 39.8 µM [inhibitor, single point]
Cc1cc2c(c(=O)o1)C(c1cccs1)C(C#N)=C(N)O2 (centres undefined) 20 µM [inhibitor, partial curve]
CCCCC(=O)Nc1ccc(NC(=O)c2ccccc2OC)cn1 31.6 µM [inhibitor, partial curve]
CCc1cccc(C)c1NC(=O)CSc1nc(-c2ccccc2F)nc2nc[nH]c12 25.1 µM [inhibitor, partial curve]
CCCCN1C(=O)c2ccc(C(=O)Nc3cccc(C)c3C)cc2C1=O 1.26 µM [inhibitor, full curve]
CC1=NN(c2cccc([N+](=O)[O-])c2)C(=O)C1 3.55 µM [inhibitor, full curve]
Nc1cccc(O)c1 35.5 µM [inhibitor, single point]
C/C(=N\OC(=O)c1ccc(Cl)cc1)c1sc(-c2ccccc2)nc1C 39.8 µM [inhibitor, single point]
COc1ccccc1-c1cc(C(=O)NCc2ccc(F)cc2)no1 44.7 µM [inhibitor, single point]
O=C(Nc1ccccc1)c1ccc(NC2CCCCC2)c(S(=O)(=O)N2CCOCC2)c1 25.1 µM [inhibitor, partial curve]

Potency, active:
CN(C)c1ccc(C2N(c3ccc(Cl)cc3)C(=O)C3CCCN32)cc1 (centres undefined) 0.794 µM
CC(NC(=O)Cc1ccc(-c2ccccc2)cc1)c1ccccc1 (centres undefined) 11.2 µM

Potency, inactive:
CN/C(=C\[N+](=O)[O-])NCCSCc1ccc(CN(C)C)o1

activity, negative = inhibition, inactive:
Cc1cc(C)c2nc(N3CCC(C(=O)NCCCN4CC(C)CC(C)C4)CC3)sc2c1 (centres undefined) 3.37%
C[C@](N)(COP(=O)(O)O)C(=O)O 4.51%
CCCCN(CC)C(=O)CN1C(=O)c2ccccc2C1=O -6.74%
CCCCC(CCC(=O)NNC(=O)Cc1ccccc1)C(=O)O (centres undefined) 13.6%
Cc1cc(C)n(CCCO)c(=O)c1C#N -3.21%
CCOc1ccc(S(=O)(=O)N2CCN(C(=O)c3cccn3C)CC2)cc1 1.58%
COc1cccc(-c2nc(CS(=O)(=O)CC(=O)NCc3ccccc3OC)c(C)o2)c1 -7.96%
COC(=O)c1cc(OC)c(OC)cc1NC(=O)C(C)c1ccc([N+](=O)[O-])cc1 (centres undefined) -5.3%
COc1ccc(NC(=O)N2CCN(C(=O)C(Cc3ccc(F)cc3)NC(C)=O)CC2)cc1 (centres undefined) -1.83%
CN1C(=O)CC[C@@H]1c1cccnc1 -4.92% [at 20.9 µM]
CCOC(=O)COc1c(OC)cc(Cl)cc1C1NC(=O)NC(C)=C1C(C)=O (centres undefined) -4.89%
CCOC(=O)NC(NC(=O)OCC)C(=O)c1ccc(F)cc1 7.22%
COc1cc(C(=O)NCc2ccncc2)cc(OC)c1OC 2.88%
COC(=O)c1nc2n(n1)C(c1cccc(Cl)c1)C1=C(CCCC1=O)N2 (centres undefined) 17.8%
NC(=O)C1=C[C@@H](c2ccccc2)C[C@@H](OCc2ccc(CO)cc2)O1 -2.94%
S=C(Nc1cccc(Br)c1)N1CCn2cccc2C1c1cccnc1 (centres undefined) -6.93%
COc1cc([N+](=O)[O-])cc(/C=N/NC(=O)C(C)Nc2cccc(C)c2)c1O (centres undefined) -1.36%
O=C(NNC(=O)c1ccc(F)cc1)C(=O)N1CCCCC1 -1.05%
O=C(O)C1C(=O)NCC1c1ccccc1 (centres undefined) 9.47%
